Nine molecules from article PMC4300205, “Human Cerberus Prevents Nodal-Receptor Binding, Inhibits Nodal Signaling, and Suppresses Nodal-Mediated Phenotypes” (PLoS ONE, 2015) can be followed below.

Protein sequences, listed by entry. Tags and fused reporters are not part of them. Residues count along the entry.
UniProt P0CG37, residues 26-158: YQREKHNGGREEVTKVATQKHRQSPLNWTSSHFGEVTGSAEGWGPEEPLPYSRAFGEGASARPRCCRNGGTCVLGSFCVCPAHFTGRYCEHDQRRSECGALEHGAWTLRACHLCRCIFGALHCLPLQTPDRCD
UniProt P08476, residues 311-426: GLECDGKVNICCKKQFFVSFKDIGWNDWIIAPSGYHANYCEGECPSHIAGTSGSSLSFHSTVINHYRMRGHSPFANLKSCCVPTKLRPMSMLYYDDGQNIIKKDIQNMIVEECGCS
UniProt P13385, residues 31-151: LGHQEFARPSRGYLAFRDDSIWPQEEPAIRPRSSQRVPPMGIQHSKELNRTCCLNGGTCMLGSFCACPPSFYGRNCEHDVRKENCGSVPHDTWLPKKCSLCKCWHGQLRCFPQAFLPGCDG
UniProt O14793, residues 267-375: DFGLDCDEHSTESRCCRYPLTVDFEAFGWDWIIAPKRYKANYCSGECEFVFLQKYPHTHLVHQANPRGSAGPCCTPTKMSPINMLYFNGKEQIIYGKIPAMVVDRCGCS

Like-named read-outs stand apart in the source and are kept apart here. No constants are given. Whether binding was seen depends on the method and setting. Some binding calls cover weakened binding; strength is not graded here. For part of these data: Sequences can lack the tags named with a protein.

The target in experiment [1] is T1, Human Cerberus-hIgg-Fc (human, UniProt O95813 18-267).
T1 construct: signal peptide in the construct; also called Cerberus-Fc; full-length Cerberus-Fc; source: CHO cells, purified from conditioned medium (Protein A, SEC); not shown: Fc (human IgG1), C-terminal, kept
T1 sequence (looked up): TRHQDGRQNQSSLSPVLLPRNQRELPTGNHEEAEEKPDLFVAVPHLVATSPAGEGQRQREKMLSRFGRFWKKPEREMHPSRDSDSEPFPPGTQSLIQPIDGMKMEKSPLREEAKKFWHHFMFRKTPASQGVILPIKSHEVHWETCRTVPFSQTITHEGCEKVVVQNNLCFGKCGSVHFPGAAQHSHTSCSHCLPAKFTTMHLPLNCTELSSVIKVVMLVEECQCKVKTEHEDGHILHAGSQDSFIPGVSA
Description: SPR; Cerberus-Fc immobilised; different TGFß family ligands injected at 80 nM, 40 ul/min; both purified.

Experiment [2] concerns the target T2, ALK7-Fc (human) (UniProt Q8NER5).
T2 sequence: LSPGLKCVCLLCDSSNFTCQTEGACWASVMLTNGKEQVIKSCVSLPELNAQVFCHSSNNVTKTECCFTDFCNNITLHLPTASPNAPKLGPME
Description: SPR; Cripto-1 and Nodal-Cripto-1 complexes tested on ALK4 and ALK7, purified human proteins (S1 Fig.; manuscript in preparation); both purified.

Experiment [3] concerns the target T3, human ALK4-hIgg-Fc (human) (UniProt P36896).
T3 sequence: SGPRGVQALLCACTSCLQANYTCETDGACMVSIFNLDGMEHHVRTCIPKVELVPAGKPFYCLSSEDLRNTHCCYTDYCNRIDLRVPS
Described as above.

Experiment [4] has as its target T4, rat ALK7-Fc (RnD systems) (rat) (UniProt P70539).
T4 sequence: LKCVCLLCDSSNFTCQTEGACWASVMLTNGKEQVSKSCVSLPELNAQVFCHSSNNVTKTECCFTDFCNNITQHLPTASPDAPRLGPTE
Nature of the experiment: SPR; ALK4-Fc and rat ALK7-Fc immobilized on an SPR sensor chip (captured by anti-human IgG (Fc) antibody, CM5); 80 nM Fc free Cripto-1 injected; 25°C; HBS-EPS (0.01 M HEPES, 0.5 M NaCl, 3 mM EDTA, 0.005% Tween 20, pH 7.4); both purified. (Surface plasmon resonance follows binding to a sensor surface in real time, without labels.)

Experiment [5] deals with T3, human ALK4-hIgg-Fc (human). Described as above.
In experiment [6] the target is T1, Human Cerberus-hIgg-Fc. Nature of the experiment: SPR; Cerberus-Fc immobilised; different TGFß family ligands injected at 80 nM, 40 ul/min; both purified. The source holds these as a separate data set.
A further experiment concerns the target T5, human Cryptic-hIgg-Fc (human, UniProt P0CG37 26-158).
T5 construct: signal peptide in the construct; human Cryptic (1-158), joined to human IgG1 Fc by a 22 amino acid linker with a TEV site, a glycine/serine rich region and a FLAG-tag; Synthetic gene from GeneArt; also called Cryptic-Fc; source: CHO cells, purified from conditioned medium (Protein A, SEC)
Description: SPR; equal amounts (by response units) of Cripto-1-Fc, Cryptic-Fc, ALK4-Fc and ALK7-Fc immobilised; single injection of 80 nM Nodal; both purified.

The target of experiment [7] is T2, ALK7-Fc (human). The description is as above.

Turning to “Recombinant Activin A (from UniProt P08476 311-426) (ligand)”, in the experiment with Human Cerberus-hIgg-Fc [1], the binding result is “no binding (tested: 80 nM)”.
Regarding “Cripto-1-Fc (from UniProt P13385 31-151) (Fc fusion)”, the binding entry (with ALK7-Fc (human) [2]; in experiment [3]) was “no binding” in each case.
As for “Recombinant GDF-8 (from UniProt O14793 267-375) (ligand)”, in the experiment with Human Cerberus-hIgg-Fc [1], the binding entry is on record as “no binding (tested: 80 nM)”.
As for “Fc free Cripto-1 (from UniProt P13385 31-151) (domain or fragment)”, the binding result in experiment [4] and in experiment [5] was “no binding (tested: 80 nM)” throughout.

B1: Recombinant BMP-4 (ligand, UniProt P12644 293-408)
chain: SPKHHSQRARKKNKNCRRHSLYVDFSDVGWNDWIVAPPGYQAFYCHGDCPFPLADHLNSTNHAIVQTLVNSVNSSIPKACCVPTELSAISMLYLDEYDKVVLKNYQEMVVEGCGCR
Consider B1, for which the binding result with Human Cerberus-hIgg-Fc [6] is reported as “no binding (tested: 80 nM)”.

B2: Recombinant GDF-11 (ligand, human, UniProt O95390 299-407, looked up)
chain: NLGLDCDEHSSESRCCRYPLTVDFEAFGWDWIIAPKRYKANYCSGQCEYMFMQKYPHTHLVQQANPRGSAGPCCTPTKMSPINMLYFNDKQQIIYGKIPGMVVDRCGCS
notes: GDF-11, recombinant; source: bought: R&D Biosystems or Life Technologies
B2: in the experiment with Human Cerberus-hIgg-Fc [6], the binding entry is on record as “binds weakly”.

B3: Recombinant BMP-9 (ligand, UniProt Q9UK05 320-429)
chain: SAGAGSHCQKTSLRVNFEDIGWDSWIIAPKEYEAYECKGGCFFPLADDVTPTKHAIVQTLVHLKFPTKVGKACCVPTKLSPISVLYKDDMGVPTLKYHYEGMSVAECGCR
Regarding B3, the binding result with Human Cerberus-hIgg-Fc [6] is “no binding (tested: 80 nM)”.

B4: recombinant human Nodal (ligand, UniProt Q96S42 238-347, looked up)
chain: HHLPDRSQLCRKVKFQVDFNLIGWGSWIIYPKQYNAYRCEGECPNPVGEEFHPTNHAYIQSLLKRYQPHRVPSTCCAPVKTKPLSMLYVDNGRVLLDHHKDMIVEECGCL
notes: Nodal, human, recombinant (RnD Systems); source: bought: RnD Systems
As to B4, the binding entry with human Cryptic-hIgg-Fc was “binds weakly”; with ALK7-Fc (human) [7], “no binding (tested: 80 nM)”.

B5: Recombinant BMP-2 (ligand, UniProt P12643 283-396)
chain: QAKHKQRKRLKSSCKRHPLYVDFSDVGWNDWIVAPPGYHAFYCHGECPFPLADHLNSTNHAIVQTLVNSVNSKIPKACCVPTELSAISMLYLDENEKVVLKNYQDMVVEGCGCR
In the case of B5, the binding result with Human Cerberus-hIgg-Fc [6] is “binds weakly”.
